The antibiotic and cytotoxicity screens of Wong et al. (2023)
Some of the results follow.

Tests used:
[1] = test system: HSkMC (human skeletal muscle cells); assay: cytotoxicity call (relative viability < 0.9); settings: 10 µM
[2] = test system: HepG2; assay: cytotoxicity call (relative viability < 0.9); settings: 10 µM
[3] = test system: S. aureus RN4220; assay: growth inhibition call (relative growth <= 0.2); settings: 50 µM

Compound | cytotoxicity call [1] | cytotoxicity call [2] | growth inhibition call [3]
C=CCN1C(=O)[C@@]2(O[C@@H](CCO)[C@H]([Si](C)(C)c3ccc(OC)cc3)[C@H]2C)c2cc(NC(=O)[C@H](C)O)ccc21 | inactive | inactive | inactive
C[C@H](CO)N1C[C@H](C)[C@H](CN(C)S(C)(=O)=O)Oc2c(NC(=O)c3cnccn3)cccc2C1=O | inactive | inactive | inactive
C[C@@H]1CN([C@H](C)CO)C(=O)Cc2cc(NC(=O)Nc3ccc(C(F)(F)F)cc3)ccc2O[C@H]1CN(C)Cc1ccc(C(=O)Nc2ccccc2N)cc1 | inactive | inactive | inactive
CCNC(=O)C[C@H]1CC[C@H](NC(=O)C2CC2)[C@H](CO)O1 | inactive | inactive | inactive
CCS(=O)(=O)NCC[C@H]1CC[C@H](NS(=O)(=O)c2cccc(F)c2)[C@H](CO)O1 | inactive | inactive | inactive
COc1ccc(CNC(=O)N(C)C[C@H]2OCc3ccccc3-c3c(n(C)c4ccccc34)C(=O)N([C@H](C)CO)C[C@H]2C)cc1 | inactive | inactive | inactive
O=C(C1CCCCC1)N1CC(=O)N2CCc3ccccc3C2C1 (configuration not stated) | inactive | inactive | inactive
O=C(C[C@H]1C[C@H]2c3cc(NS(=O)(=O)c4ccc(F)cc4)ccc3O[C@H]2[C@@H](CO)O1)NC1CCCCC1 | inactive | inactive | inactive
C[C@H]1CN([C@@H](C)CO)C(=O)Cc2cc(NC(=O)Nc3ccccc3)ccc2O[C@H]1CN(C)S(=O)(=O)c1cn(C)cn1 | inactive | inactive | inactive
C[C@H]1CN([C@@H](C)CO)C(=O)Cc2cc(NC(=O)CCCCCC(=O)Nc3ccccc3N)ccc2O[C@@H]1CN(C)S(=O)(=O)c1cn(C)cn1 | inactive | inactive | inactive
COCCN1CCO[C@@H]2CN(Cc3cnn(C)c3)C[C@@H]21 | inactive | inactive | inactive
C[C@@H]1CCCCO[C@@H](CN(C)C(=O)CCC(F)(F)F)[C@@H](C)CN([C@@H](C)CO)C(=O)c2cc(NC(=O)NC3CCCCC3)ccc2O1 | inactive | inactive | inactive
CC1C(=O)OC2CC34C5CC(C(C)(C)C)C36C(OC(=O)C6O)OC4(C(=O)O5)C21O (configuration not stated) | inactive | inactive | inactive
C[C@H](CO)N1C[C@H](C)[C@H](CN(C)C(=O)Cc2ccccc2)OCCCC[C@H](C)Oc2ccc(NC(=O)Nc3ccccc3)cc2C1=O | inactive | inactive | inactive
CCOC(=O)OC(C)OC(=O)C1N2C(=O)C(NC(=O)C(N)c3ccccc3)C2SC1(C)C.Cl (configuration not stated) | inactive | inactive | active
Cc1ccccc1S(=O)(=O)N1C[C@@H](O)COC[C@H]2O[C@H](CC(=O)NCc3ccccc3Cl)CC[C@@H]21 | inactive | inactive | inactive
CCOC(=O)CCCCCC(=O)Nc1ccc2c(c1)C(=O)N([C@@H](C)CO)C[C@H](C)[C@H](CN(C)C(=O)Nc1ccc(C(F)(F)F)cc1)OCCCC[C@H](C)O2 | inactive | inactive | inactive
O=C(C[C@H]1CC[C@H]2[C@@H](COC[C@@H](O)CN2S(=O)(=O)c2ccccc2)O1)NCc1ccncn1 | inactive | inactive | inactive
COc1ccc(C(=O)NCC(=O)O)cc1 | inactive | inactive | inactive
Cc1noc(C)c1NC(=O)Nc1cccc2c1O[C@@H](CN(C)S(=O)(=O)c1ccccc1)[C@@H](C)CN([C@@H](C)CO)C2=O | inactive | inactive | inactive
C[C@H](CO)N1C[C@H](C)[C@@H](CN(C)Cc2ccc(-c3ccccc3)cc2)Oc2ccc(NC(=O)Nc3ccccc3)cc2C1=O | inactive | active | inactive
C[C@@H]1CCCCO[C@H](CN(C)Cc2ccc3c(c2)OCO3)[C@H](C)CN([C@@H](C)CO)C(=O)c2cc(NS(=O)(=O)c3cccs3)ccc2O1 | inactive | inactive | inactive
CC(=O)c1ccc2ccccc2c1O | inactive | inactive | inactive
C[C@H]1CN([C@@H](C)CO)C(=O)c2cc(NC(=O)Nc3ccc(C(F)(F)F)cc3)ccc2O[C@@H]1CN(C)C(=O)Nc1ccccc1 | inactive | inactive | inactive
O=C(Cn1nnc2ccccc2c1=O)Nc1nnc[nH]1 | inactive | inactive | inactive
COc1cccc(C#Cc2cnc3c(c2)C(=O)N([C@H](C)CO)C[C@@H](C)[C@H](CN(C)C(=O)C2CCOCC2)O3)c1 | inactive | inactive | inactive
O=c1c2cccnc2ccn1C[C@H]1COCCO1 | inactive | inactive | inactive
O=C(CCCCCCC(=O)N/N=C/[C@H](O)[C@@H](O)[C@@H](O)[C@H](O)C(=O)O)NO | inactive | inactive | inactive
CC(C)C#Cc1cnc2c(c1)C(=O)N([C@@H](C)CO)C[C@H](C)[C@@H](CN(C)C(=O)c1ccc3c(c1)OCO3)O2 | inactive | inactive | inactive
